Assay results from PubChem BioAssay AID504339 (National Center for Advancing Translational Sciences (NCATS), 2011).
In all, about 390,000 compounds went through this assay and about 17,000 (4.4%) were called active. The shares of active, inactive and inconclusive entries below differ from those in the screen. The call rests on the fitted dose curve; in most records, active means well fitted inhibition curve with a large enough effect; inconclusive means small, poorly fitted or top-dose-only effect; inactive means no such curve, though single readings can be large or run the other way. Potencies beside an inconclusive call are fits to weak or partial responses and may not hold up.

Target: Lysine-specific demethylase 4A (Homo sapiens) (UniProt O75164)
Sequence of UniProt O75164 (O75164 whole entry, looked up, the tested form may be a part): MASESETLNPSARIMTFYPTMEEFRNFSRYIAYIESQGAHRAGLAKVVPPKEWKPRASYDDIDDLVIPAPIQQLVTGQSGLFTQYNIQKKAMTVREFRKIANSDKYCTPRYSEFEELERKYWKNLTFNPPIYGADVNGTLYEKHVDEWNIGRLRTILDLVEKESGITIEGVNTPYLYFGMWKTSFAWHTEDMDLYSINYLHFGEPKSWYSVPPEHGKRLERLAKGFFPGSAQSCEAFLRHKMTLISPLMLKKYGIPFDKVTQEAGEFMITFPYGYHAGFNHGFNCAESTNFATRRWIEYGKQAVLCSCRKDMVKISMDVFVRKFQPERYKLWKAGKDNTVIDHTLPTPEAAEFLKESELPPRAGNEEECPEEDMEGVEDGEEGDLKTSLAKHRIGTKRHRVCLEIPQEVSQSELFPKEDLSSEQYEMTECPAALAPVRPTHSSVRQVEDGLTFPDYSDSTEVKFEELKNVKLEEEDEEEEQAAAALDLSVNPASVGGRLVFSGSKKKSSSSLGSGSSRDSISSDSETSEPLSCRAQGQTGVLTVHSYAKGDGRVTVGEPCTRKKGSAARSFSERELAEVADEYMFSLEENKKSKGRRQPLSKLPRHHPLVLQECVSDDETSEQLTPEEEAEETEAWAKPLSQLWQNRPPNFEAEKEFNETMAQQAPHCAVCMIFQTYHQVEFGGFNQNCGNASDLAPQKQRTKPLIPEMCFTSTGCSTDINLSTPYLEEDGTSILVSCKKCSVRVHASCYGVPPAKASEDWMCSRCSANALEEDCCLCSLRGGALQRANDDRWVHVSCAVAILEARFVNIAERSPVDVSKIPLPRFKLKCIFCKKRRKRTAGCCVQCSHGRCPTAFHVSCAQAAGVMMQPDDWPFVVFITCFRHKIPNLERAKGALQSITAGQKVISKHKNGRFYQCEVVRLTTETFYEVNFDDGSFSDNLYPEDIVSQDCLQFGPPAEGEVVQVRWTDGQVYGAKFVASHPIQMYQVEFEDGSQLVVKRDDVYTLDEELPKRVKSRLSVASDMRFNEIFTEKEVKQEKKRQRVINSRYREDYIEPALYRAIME
Assay: qHTS Assay for Inhibitors of JMJD2A-Tudor Domain; further: nearly all actives have a fitted effect of over 50% in size
Details: AlphaScreen JMJD2A-Tudor / H3K4me3 peptide binding; activity change, negative = inhibition: at 114 µM (top of the series)
On the % scale 0 is the no-effect control and ±100 the full control effect; potency means the concentration at half of the fitted maximal effect; tags describe the fitted curve by direction and shape.

Compound	Potency	activity change, negative = inhibition
O=C1CCC[C@@H]2[C@@H](Cc3ccccc3)[C@H](N3CCN(c4ccccc4)CC3)C[C@@H]3CCN1[C@@H]32	active: 44.7 µM	
O=C(CN1CCOCC1)N/N=C/C=C/c1ccccc1	inconclusive: 35.5 µM [inhibitor, single point]	
CCCOc1ccccc1-n1sc2c(c1=S)-c1cc(OC)cc3c1N(C(=O)C3=O)C2(C)C	active: 2.51 µM	
CC(NCc1cc(Br)ccc1OCC(=O)NCc1ccccc1)c1ccccc1 (stereo not drawn)		inactive: -16.8%
COc1ccc(NC(=O)CN2CCN(C3c4ccccc4-c4ccccc43)CC2)cc1	inconclusive: 50.1 µM [inhibitor, partial curve]	
O=P(O)(CCc1ccccn1)CN1CCOCC1	inconclusive: 89.1 µM [inhibitor, partial curve]	
Cc1ccc(NC(=O)CCc2c[nH]c3ccccc23)nc1	inconclusive: 50.1 µM [inhibitor, partial curve, poor fit]	
c1ccc(-c2cc3n(c2)CCc2ccccc2-3)cc1	inconclusive: 44.7 µM [inhibitor, partial curve]	
COc1ccc(CCNc2ccc(C)cc2)cc1	active: 39.8 µM	
Cc1ccc(NC(=O)Cc2nc(CCl)cs2)cc1	inconclusive: 70.8 µM [inhibitor, single point]	
Cc1cccc(-n2c(=O)c3ccccc3n(Cc3ccc(F)cc3)c2=O)c1		inactive: 8.19%
CN(C)/C=N/c1nc2ncc(-c3ccc(Cl)cc3)c(/N=C/N(C)C)n2n1		inactive: -10.5% [at 11.4 µM]
O=C(NCCCOc1cccc(CN2CCCCC2)c1)c1ccc(Cl)c(Cl)c1	active: 3.55 µM	
CN(c1ccccc1)S(=O)(=O)c1cccc(C(=O)Nc2ccc(N3CCOCC3)cc2)c1	inconclusive: 56.2 µM [inhibitor, partial curve]	
O=C1CC(Sc2nnc(-c3ccccc3O)o2)C(=O)N1c1ccccc1 (stereo not drawn)	inconclusive: 4.47 µM [inhibitor, full curve]	
COc1ccccc1C(CCNCc1ccc(N(C)C)cc1)c1ccc(OC(C)C)cc1 (stereo not drawn)	active: 12.6 µM	
CC(=O)/C=C(/C)NC(Cc1c[nH]c2ccccc12)C(=O)O (stereo not drawn)	inconclusive: 89.1 µM [inhibitor, single point]	
CCOC(=O)c1sc(NC(=O)c2c(-c3ccccc3)c(-c3ccccc3)nn(C)c2=O)nc1C	inconclusive: 39.8 µM [inhibitor, partial curve, poor fit]	
O=C(/C=C/c1cccc([N+](=O)[O-])c1)N1CCN(c2ccccc2F)CC1		inactive: -17% [at 57.1 µM]
CN(C)C(=O)C#Cc1ccccc1		inactive: 0.694%
[O-]/[N+](=C/c1ccc(F)cc1)c1ccccc1		inactive: 4.17%
CCCc1nn2c(=O)cc(COC(=O)CNC(=O)COc3ccc(C)cc3)nc2s1		inactive: -3.33%
CC(C)C(=O)NC(c1ccco1)c1c(O)ccc2ccccc12 (stereo not drawn)	inconclusive: 89.1 µM [inhibitor, partial curve]	
O=c1cc(-c2ccc(O)cc2)oc2c(-c3c(O)cc(O)c4c(=O)cc(-c5ccc(O)cc5)oc34)c(O)cc(O)c12		inactive: -26.5%
Cn1c(-c2csc(-c3ccccc3)n2)n[nH]c1=S	active: 28.2 µM	

Compound	Potency	activity change, negative = inhibition
O=S(=O)(c1cccc(-c2n[nH]c(=S)n2-c2ccc(OC(F)(F)F)cc2)c1)N1CCOCC1		inactive: -18.1%
CC(=O)O[C@H]1C(=O)[C@@]2(C)[C@H]([C@H](OC(=O)c3ccccc3)[C@]3(O)C[C@H](OC(=O)[C@H](O)[C@@H](NC(=O)c4ccccc4)c4ccccc4)C(C)=C1C3(C)C)[C@]1(OC(C)=O)CO[C@@H]1C[C@@H]2O		inactive: -10.1%
Cc1ccc2nc(NNC(=O)c3ccc4c(c3)OCCO4)sc2c1	inconclusive: 10 µM [inhibitor, full curve, poor fit]	
CCN(CC)Cc1c(C(=O)N/N=C/c2cccs2)nnn1-c1nonc1N		inactive: -8.13%
CC1=NN(c2ccccc2)C(=O)/C1=C\C=C\c1ccccc1	active: 10 µM	
N=c1n(Cc2ccc(Cl)cc2)c2ccccc2n1CC(O)c1ccco1 (stereo not drawn)	inconclusive: 89.1 µM [inhibitor, single point]	
O=C(O)c1ccccc1N=Nc1ccc(O)cc1	inconclusive: 44.7 µM [inhibitor, partial curve]	
COc1ccc(NC2=C(c3ccc(C(F)(F)F)cc3)C(=O)c3ccccc32)cc1		inactive: -3.77%
COc1ccc(C(C[N+](=O)[O-])c2c(-c3ccccc3)cc3ccccn23)cc1 (stereo not drawn)	inconclusive: 44.7 µM [inhibitor, full curve, poor fit]	
COc1cc(/C=N/n2cc(-c3ccccc3)[nH]c2=S)cc(OC)c1O	active: 1.26 µM	
COC(=O)C1=C(O)/C(=C\c2ccc(OCC(=O)Nc3ccc(OC)cc3)cc2)N=C1C		inactive: -18.6%
CC(=O)c1c(C)[nH]c(C(=O)N(CCc2ccccc2)Cc2ccccc2)c1C	inconclusive: 14.1 µM [inhibitor, partial curve]	
CC(=O)c1ccc(-n2ccc(=O)cc2)cc1		inactive: -10%
Cc1ccccc1-c1ccc(Nc2ccc(N3CCOCC3)cc2)nn1	inconclusive: 25.1 µM [inhibitor, full curve]	
CCn1cc(C(=O)NCCCN(C)c2ccccc2)c(=O)c2cc(S(=O)(=O)N(C)C)ccc21	inconclusive: 50.1 µM [inhibitor, partial curve]	
O=C(CSc1nc(-c2cccc(F)c2)[nH]c1-c1ccccc1)Nc1ccc2c(c1)OCO2	inconclusive: 28.2 µM [inhibitor, full curve]	
COc1ccc(CC(=O)NCc2n[nH]c(=S)n2C)cc1	inconclusive: 35.5 µM [inhibitor, single point]	
CCc1ccccc1N(C)C(=O)C1CCCN(c2ncnc3c2nc2n3CCCCC2)C1 (stereo not drawn)		inactive: -16.5%
Cc1ccc(Nc2ccc(C(N)=O)cc2[N+](=O)[O-])cc1C	inconclusive: 25.1 µM [inhibitor, full curve]	
Cc1ccc(-n2ncc(C(=O)NCc3ccco3)c2C2CCN(C(=O)OC(C)(C)C)CC2)cc1C	inconclusive: 50.1 µM [inhibitor, partial curve]	
Cc1cccc2cc(C3CC(c4ccco4)=NN3S(=O)(=O)c3ccccc3)c(Cl)nc12 (stereo not drawn)	inconclusive: 12.6 µM [inhibitor, partial curve]	
Brc1ccc(CN2CCCCCC2)cc1	active: 28.2 µM	
SC(COCc1ccccc1)CN1CCN(Cc2ccc3c(c2)OCO3)CC1 (stereo not drawn)	inconclusive: 35.5 µM [inhibitor, partial curve]	
Cc1cc2ncn(C(=O)c3ccc4c(c3)OCO4)c2cc1C		inactive: -8.68%
CCOC(=O)N1CCN(C(=O)CCCCn2c(=S)[nH]c3ccsc3c2=O)CC1	inconclusive: 100 µM [inhibitor, partial curve]	

Compound	Potency	activity change, negative = inhibition
CCC1=C/C(=C/c2sc3ccccc3[n+]2CC)CC(C)(C)C1	active: 12.6 µM	
CC(NC(=O)CSc1nc(C2CC2)n(-c2ccccc2)n1)c1ccco1 (stereo not drawn)		inactive: -24.1%
COc1ccc2c(=O)c3c(=O)n(Cc4ccco4)c(-c4ccco4)nc3oc2c1	inconclusive: 39.8 µM [inhibitor, partial curve]	
COc1ccc(/C(O)=C/C(=O)C(=O)NNC(=O)C(O)(c2ccccc2)c2ccccc2)cc1	active: 79.4 µM	
CCc1n[nH]c(=S)n1/N=C/C(C)=C\c1ccccc1	active: 25.1 µM	
CCC(=O)N1CCc2cc(S(=O)(=O)NCCC(=O)Nc3ccc(N(CC)CC)cc3C)ccc21	inconclusive: 11.2 µM [inhibitor, full curve, poor fit]	
CC(C)(C)c1ccc(CNc2ccc([N+](=O)[O-])cn2)cc1	inconclusive: 14.1 µM [inhibitor, full curve]	
CCCOc1ccc(N2C(=O)CC(N(CCC)C(=O)CCC(=O)O)C2=O)cc1 (stereo not drawn)	inconclusive: 17.8 µM [inhibitor, full curve]	
CC(C)(c1ccccc1)c1ccc(OCC(O)CNC2CCN(Cc3ccccc3)CC2)cc1 (stereo not drawn)	active: 2.82 µM	
CC(=O)Nc1cc[n+](CC(=O)c2cccc([N+](=O)[O-])c2)cc1		inactive: 3.61%
CN1CCC(N(C)CC(=O)Nc2ccccc2N2CCOCC2)CC1	active: 8.91 µM	
CCOC(=O)CCC(=O)NNC(=O)c1ccc(NC(=O)c2ccccc2)cc1	inconclusive: 12.6 µM [inhibitor, full curve]	
COc1ccc(CC(=O)Nc2sccc2C#N)cc1S(=O)(=O)N1CCOCC1		inactive: -4.14%
Cc1ccc2c(c1)c1cccc3c1n2CCN3CCC(N)=O	active: 50.1 µM	
CC(=O)C1=C(O)C(=O)N(CCN2CCOCC2)C1c1ccccc1 (stereo not drawn)	inconclusive: 89.1 µM [inhibitor, single point]	
O=C(COC(=O)CCC1CCCC1)Nc1ccccc1Br		inactive: 114%
Cc1cc(C)cc(NC(=O)C(Cc2ccccc2)NS(=O)(=O)c2ccc3c(c2)CCC(=O)N3)c1 (stereo not drawn)		inactive: -6.73%
OCCC1CN(Cc2cnc(-c3ccc(Cl)cc3)nc2)CCN1C1CCCC1 (stereo not drawn)		inactive: -0.69%
O=C(O)C1C2CCC(CC2)C1C(=O)O (stereo not drawn)	inconclusive: 89.1 µM [inhibitor, single point]	
COc1ccc(/C=C(\C#N)C(=O)OCC(=O)Nc2c(C)cccc2C(C)C)cc1		inactive: -9%
Fc1ccccc1Cc1noc(CN(Cc2ccccn2)CC2CCCO2)n1 (stereo not drawn)		inactive: -10.7%
CCOc1ccc(CCN2C(=S)N([C@@H](CC(C)C)CN3CCCC3CN3C(=S)NC[C@@H]3Cc3ccc(O)cc3)C[C@@H]2Cc2ccc(O)cc2)cc1 (stereo partly drawn)	inconclusive: 35.5 µM [inhibitor, partial curve, poor fit]	
CCOC(=O)C1CCN(Cc2nnc(-c3cccc(Br)c3)o2)CC1		inactive: 1.67%
